Holding throughout (experiment): Viability of human cancer cell lines after 72 h of drug (GDSC screen)
Compound in one assay: C#Cc1cccc(Nc2ncnc3cc(OC)c(OCCCCCCC(=O)NO)cc23)c1 [CUDC-101]
The conditions noted are these: top dose 5.12 µM; top dose inferred. The procedure: (§1)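 Human cancer cell lines in 384-well plates, medium with 10% serum, drug for 72 h over a 256-fold dose range (nine 2-fold or five 4-fold steps up to the top dose). Adherent lines were fixed and stained with the nucleic acid dye Syto60, suspension lines read with resazurin; signal relative to control wells, capped at 0 and 100%. One two-parameter sigmoid per drug and line, fitted in a mixed model over all curves with the slope shared within a line.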

Compound in a further assay: O=c1[nH]cc(F)c(=O)[nH]1 [5-Fluorouracil]
To be noted: top dose 32 µM; top dose inferred. The procedure: as §1

Compound in the next assay: COc1cc(F)c(F)c(Nc2ccc(I)cc2F)c1NS(=O)(=O)C1(C[C@H](O)CO)CC1 [RDEA119]
The conditions noted are these: top dose 5 µM, top dose inferred. The procedure: as §1

Compound in a further assay: CC(C)(C)c1cc(NC(=O)Nc2ccc(-c3cn4c(n3)sc3cc(OCCN5CCOCC5)ccc34)cc2)no1 [AC220]
To be noted: top dose 1.024 µM; top dose inferred. As for the experimental part: as §1

Compound in a further assay: NCC(=O)Nc1ccc(-n2nc(C(F)(F)F)cc2-c2ccc3c(ccc4ccccc43)c2)cc1 [OSU-03012]
The conditions noted are these: top dose 16 µM; top dose inferred. The procedure: as §1

Compound in a further assay: Fc1cc(-c2ccnc(Nc3ccc(-n4cnc(N5CCOCC5)n4)cc3)n2)cc(N2CCOCC2)c1 [JNK-9L]
The conditions noted are these: top dose 5.12 µM; top dose inferred. As for the experimental part:
as §1

Compound in another assay: OC[C@H](Cc1ccccc1)Nc1nc(Oc2ccc3c(c2)CCC3)nc2c1ncn2Cc1ccc(-c2ccccc2)cc1 [QS11]
The conditions noted are these: top dose 10.24 µM. As for the experimental part:
as §1

pIC50: −log10 of the molar value. The IC50 comes from the fitted curve, where viability falls to half of the control; a limit (>, <) means that the fit lies beyond the doses tested. AUC sums up the same curve from the lowest dose to the 256-fold higher top dose; values near 1 show little effect. For some of these results: A top dose marked as inferred was derived from the fitted curves, not read from the paper. For some of these results: Where an entry number is given, a second screen of the drug exists; the two often differ.

Consider “MOLT-13 (T-cell lymphoblastic leukaemia, suspension)”, for which the AUC with CUDC-101 turned out to be 0.118; in the assay with 5-Fluorouracil it was 0.928; in the assay with RDEA119 (screen: GDSC drug entry 1014), 0.44; with RDEA119 (screen: GDSC drug entry 1526), 0.596; with AC220, 0.903. For the same cell line, the pIC50 with CUDC-101 was 7.62; with 5-Fluorouracil, under 4.49; with RDEA119 (screen: GDSC drug entry 1014) it was 6.66; with RDEA119 (screen: GDSC drug entry 1526), 6.26; in the assay with AC220, under 5.99.

In the case of MV-4-11 (leukaemia, suspension), the AUC was determined as 0.631 in the assay with OSU-03012; 0.548 with JNK-9L; 0.196 with 5-Fluorouracil; 0.621 in the assay with RDEA119 (screen: GDSC drug entry 1014); 0.679 in the assay with RDEA119 (screen: GDSC drug entry 1526); 0.85 in the assay with QS11. Further, the pIC50 is 5.67 with OSU-03012; 6.37 in the assay with JNK-9L; 6.50 with 5-Fluorouracil; 6.20 with RDEA119 (screen: GDSC drug entry 1014); 6.05 in the assay with RDEA119 (screen: GDSC drug entry 1526); 5.24 with QS11.

NB17 (neuroblastoma, adherent): the AUC in the assay with CUDC-101 came out at 0.957; with JNK-9L, 0.61; with 5-Fluorouracil, 0.397; with RDEA119 (screen: GDSC drug entry 1014), 0.984; in the assay with AC220, 0.87. The pIC50 with CUDC-101 was under 5.29; with JNK-9L it was 6.17; in the assay with 5-Fluorouracil, 6.00; with RDEA119 (screen: GDSC drug entry 1014) it was under 5.30; with AC220, under 5.99.

Regarding NCC021 (kidney, adherent), the AUC is 0.625 with CUDC-101; 0.969 with 5-Fluorouracil; 0.916 in the assay with RDEA119 (screen: GDSC drug entry 1014); 0.913 with RDEA119 (screen: GDSC drug entry 1526); 0.983 with AC220. Besides, the pIC50 in the assay with CUDC-101 was 6.12; with 5-Fluorouracil, under 4.49; with RDEA119 (screen: GDSC drug entry 1014), under 5.30; with RDEA119 (screen: GDSC drug entry 1526), under 5.30; with AC220, under 5.99.

On to NCI-H630 (large intestine, adherent), for which the AUC in the assay with CUDC-101 turned out to be 0.687; with JNK-9L it was 0.624; in the assay with 5-Fluorouracil, 0.809; with RDEA119 (screen: GDSC drug entry 1014) it was 0.853; with RDEA119 (screen: GDSC drug entry 1526), 0.845; with AC220, 0.988. In addition, the pIC50 with CUDC-101 was 5.95; with JNK-9L, 6.14; with 5-Fluorouracil it was 4.74; in the assay with RDEA119 (screen: GDSC drug entry 1014), 5.36; in the assay with RDEA119 (screen: GDSC drug entry 1526) it was 5.40; with AC220, under 5.99.

“NCI-H1963 (small cell lung carcinoma, suspension)”: the AUC in the assay with CUDC-101 came to 0.888; in the assay with OSU-03012 it was 0.875; with JNK-9L it was 0.67; with 5-Fluorouracil, 0.932; with QS11, 0.97. Further, the pIC50 in the assay with CUDC-101 was 5.35; with OSU-03012, 4.91; with JNK-9L, 6.05; with 5-Fluorouracil, under 4.49; with QS11 it was under 4.99.

As to OACM5-1 (oesophagus, semi-adherent), the AUC with CUDC-101 was found to be 0.532; with 5-Fluorouracil, 0.758; in the assay with RDEA119 (screen: GDSC drug entry 1014), 0.986; in the assay with RDEA119 (screen: GDSC drug entry 1526) it was 0.984; with AC220 it was 0.77. For the same cell line, the negative-log IC50 (pIC50) with CUDC-101 was 6.40; in the assay with 5-Fluorouracil it was 4.91; with RDEA119 (screen: GDSC drug entry 1014), under 5.30; with RDEA119 (screen: GDSC drug entry 1526), under 5.30; with AC220 it was 6.36.

On to OACp4C (oesophagus, adherent), for which the AUC with CUDC-101 was 0.308; with 5-Fluorouracil, 0.871; with RDEA119 (screen: GDSC drug entry 1014) it was 0.7; with RDEA119 (screen: GDSC drug entry 1526), 0.712; with AC220, 0.982. In addition, the negative logarithm of the IC50 (pIC50) is 7.09 with CUDC-101; under 4.49 with 5-Fluorouracil; 5.89 in the assay with RDEA119 (screen: GDSC drug entry 1014); 5.85 with RDEA119 (screen: GDSC drug entry 1526); under 5.99 with AC220.

Regarding OC-314 (ovary, adherent), the AUC in the assay with CUDC-101 came out at 0.507; with 5-Fluorouracil, 0.512; in the assay with RDEA119 (screen: GDSC drug entry 1014), 0.929; in the assay with RDEA119 (screen: GDSC drug entry 1526), 0.893; with AC220, 0.991. Further, the pIC50 with CUDC-101 is 6.48; with 5-Fluorouracil it was 5.67; with RDEA119 (screen: GDSC drug entry 1014) it was under 5.30; with RDEA119 (screen: GDSC drug entry 1526) it was 5.35; with AC220 it was under 5.99.

As to OV-7 (ovary, adherent), the AUC in the assay with CUDC-101 is 0.687; in the assay with 5-Fluorouracil, 0.906; with RDEA119 (screen: GDSC drug entry 1014), 0.827; in the assay with RDEA119 (screen: GDSC drug entry 1526) it was 0.803; with AC220 it was 0.942. Also, the pIC50 with CUDC-101 is 5.85; with 5-Fluorouracil, under 4.49; with RDEA119 (screen: GDSC drug entry 1014), under 5.30; in the assay with RDEA119 (screen: GDSC drug entry 1526), 5.37; with AC220, under 5.99.

Consider OV-17R (ovary, adherent), for which the AUC in the assay with CUDC-101 was 0.431; in the assay with 5-Fluorouracil it was 0.899; with RDEA119 (screen: GDSC drug entry 1014), 0.866; in the assay with RDEA119 (screen: GDSC drug entry 1526), 0.957; with AC220 it was 0.973. For the same cell line, the pIC50 in the assay with CUDC-101 was 6.71; with 5-Fluorouracil, under 4.49; with RDEA119 (screen: GDSC drug entry 1014), under 5.30; with RDEA119 (screen: GDSC drug entry 1526), under 5.30; in the assay with AC220 it was under 5.99.

On to OV-56 (ovary, adherent), for which the AUC was found to be 0.732 with CUDC-101; 0.813 with 5-Fluorouracil; 0.759 with RDEA119 (screen: GDSC drug entry 1014); 0.802 in the assay with RDEA119 (screen: GDSC drug entry 1526); 0.989 with AC220. The pIC50 in the assay with CUDC-101 was 5.85; in the assay with 5-Fluorouracil, 4.79; with RDEA119 (screen: GDSC drug entry 1014), 5.77; with RDEA119 (screen: GDSC drug entry 1526) it was 5.63; with AC220, under 5.99.

By pIC50 is commonly meant −log10 of the IC50, conventionally taken in molar units.

Values taken from the supplement of paper PMC4967469.
